# Test results from PubChem BioAssay AID686978 (National Center for Advancing Translational Sciences (NCATS), 2013).
# The whole screen tested about 420,000 compounds, of which about 64,000 (15%) were called active. The inconclusive results got no clear call from the source; some entries with a clear call stand among them for comparison. Calls follow the shape of the dose curve; as a rule, active = well fitted inhibition curve with a large enough effect; inconclusive = small, poorly fitted or top-dose-only effect; inactive = flat fitted curve, though single readings scatter. Potencies of inconclusive entries are left out as doubtful fits.
# Assay: qHTS for Inhibitors of human tyrosyl-DNA phosphodiesterase 1 (TDP1): qHTS in cells in absence of CPT; also: nearly all actives have a fitted effect of over 55% in size
# Conditions: DT40 Tdp1-/- hTDP1 cells, no CPT, ATP luminescence, 48 h; activity change, negative = growth inhibition: at 46.2 µM (top of the series) unless noted
# In short: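 DT40 Tdp1-/-;hTDP1 cells, no CPT (DMSO vehicle only), 400 cells/well; compounds pin-transferred; ≥48 hr, 37 °C; CellTiter-Glo 30 min RT dark, luminescence read.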
# % is scaled to controls: 0 for no effect and ±100 for the full control effect; potency is read from the fitted curve at half-maximal effect; tags tell the direction and shape of the fitted curve.
Compound,"activity change, negative = growth inhibition",Potency
O=C1C[C@@H](c2ccc(O)cc2)Oc2cc(O)cc(O)c21,inactive: -18.8%,–
Cc1cc(Cn2nc(-c3ccccc3)cc2C(=O)NCC2CC2)on1,inactive: -9.85%,–
COc1ccc(-c2cc(NC(C)=O)c3ncc(-c4cccc(C(F)(F)F)c4)n3c2)c(OC)c1,–,"inconclusive [inhibitor, single point]"
O=C(N/N=C1\CCS(=O)(=O)c2ccc(F)cc21)c1ccc([N+](=O)[O-])cc1,–,"inconclusive [inhibitor, single point]"
CC(=O)c1ccc(N2CCN(C(=O)CCN3C(=S)NC(C)(C)CC3C)CC2)cc1 (stereo not given),inactive: -16.4%,–
CCOc1ccc(CNC(=O)C2CCCN(c3nnc(C)c4c(C)n(-c5ccccc5)nc34)C2)cc1 (stereo not given),–,active: 18.4 µM
O=C(CN1CCc2cc3c(cc2C1)OCCCO3)Nc1ccc(S(=O)(=O)N2CCCC2)cc1,–,"inconclusive [inhibitor, partial curve, poor fit]"
CC1CCCN(C2(O)C(=O)Nc3c(C(F)(F)F)cccc32)C1 (stereo not given),inconclusive: -36.8% [inhibitor],–
CCCCN(CCCC)S(=O)(=O)c1ccc2oc(C(=O)N3CCOCC3)c(C)c2c1,–,"inconclusive [inhibitor, single point]"
CC(=O)Nc1ccc(S(=O)(=O)Nc2cccc(NC(=O)C(C)(C)C)c2)cc1,inactive: -25.7%,–
Cc1ccc(C(NC(=O)c2ccccc2)C(Cl)Cl)cc1 (stereo not given),–,"inconclusive [inhibitor, single point]"
CCOC(=O)Cc1cc(=O)c2cc(C)ccc2[nH]1,–,"inconclusive [inhibitor, single point]"
COc1cc(C(=S)N2CCOCC2)cc(OC)c1OC(=O)c1ccc([N+](=O)[O-])cc1[N+](=O)[O-],–,"inconclusive [inhibitor, partial curve]"
O=C1C(c2ccc(F)cc2)N(CC2COc3ccccc3O2)C(=O)CN1C1CCCCC1 (stereo not given),–,"inconclusive [inhibitor, single point]"
COc1ccc(NC2=C3CCCC=C3N(c3ccc(OC)cc3)C2=O)cc1,–,"inconclusive [inhibitor, single point]"
O=C(NCc1ccccc1)c1cc(C2CCCCN2C(=O)c2ccc(Cl)cc2)on1 (stereo not given),–,"inconclusive [inhibitor, single point]"
CC1CC(=S)Nc2ccccc2N1C(=O)Nc1ccccc1 (stereo not given),inactive: -9.53%,–
COc1ccc(NC(=O)c2ccco2)cc1NC(=O)C(C)(C)Oc1ccc(Cl)cc1,–,"inconclusive [inhibitor, single point]"
O=S(=O)(c1ccccc1)N1CCN(CCO)CC1,inactive: -0.347%,–
Cc1c(NS(=O)(=O)c2cc(C(=O)NC(C)c3ccccc3)ccc2Cl)c(=O)n(-c2ccccc2)n1C (stereo not given),inactive: 3.76%,–
CSc1n[nH]c(N)c1S(=O)(=O)c1ccc(Cl)cc1,inactive: 10.3%,–
COC(=O)c1ccc(Cl)c(NC(=O)CN(c2ccc3c(c2)OCO3)S(C)(=O)=O)c1,inactive: 1.32%,–
Cc1nn2c(C)c(C(=O)NC(C)c3ccccc3)cnc2c1-c1ccc(F)cc1 (stereo not given),–,"inconclusive [inhibitor, partial curve, poor fit]"
COc1ccc(Cl)cc1NC(=S)N1CCN(c2ccccn2)CC1,–,"inconclusive [inhibitor, single point]"
CCOC(=O)c1[nH]c(C=O)c(C(=O)OCC)c1C,–,active: 0.651 µM
CC(C)(C)CC(=O)NCCc1csc(-c2ccccc2)n1,–,"inconclusive [inhibitor, single point]"
CC(=O)c1cccc(NC(=O)c2ccc(N(C)S(=O)(=O)c3ccc(C)cc3)cc2)c1,–,"inconclusive [inhibitor, single point]"
NS(=O)(=O)c1ccc(NC(=O)CSc2nnc(-c3ccc(O)cc3)o2)cc1,–,"inconclusive [inhibitor, full curve, poor fit]"

Compound,"activity change, negative = growth inhibition",Potency
CCOC(=O)c1c(C)[nH]c(C)c1C(=O)COC(=O)/C=C/c1ccc(OC(F)F)cc1,–,"inconclusive [inhibitor, partial curve]"
CC(C)CCOc1ccc(CC(=O)NO)cc1,–,"inconclusive [inhibitor, single point]"
O=S(=O)(Nc1ccc(NS(=O)(=O)c2ccccc2)c2ccccc12)c1ccccc1,–,"inconclusive [inhibitor, single point]"
CC(Sc1ccccc1)C(=O)NN=C1CCCCCCC1 (stereo not given),inactive: -17.6%,–
CC(NS(=O)(=O)c1ccc2c(c1)CC(C)N2C(=O)C1CC1)c1ccccc1 (stereo not given),inactive: 8.05%,–
COc1ccc(C)cc1NC(=O)c1cc2c(=O)n3cccc(C)c3nc2s1,inactive: -2.78%,–
COc1ccc(OC(C)C(=O)N(C)Cc2nc(-c3cccc(C)c3)no2)cc1 (stereo not given),–,"inconclusive [inhibitor, single point]"
COc1cccc(CC(=O)OCC(=O)NC(=O)c2ccc(OC(F)F)cc2)c1,inactive: -15.6%,–
CC[C@]1(O)C[C@@H]2CN(CCc3c([nH]c4ccccc34)[C@](C(=O)OC)(c3cc4c(cc3OC)N(C=O)[C@H]3[C@@](O)(C(=O)OC)[C@H](C(=O)OC)[C@@]5(CC)C=CCN6CC[C@]43[C@H]65)C2)C1,–,active: 0.0188 µM
COc1ccc(Cl)cc1NC(=O)c1cn(C2CCCC2)c(=O)c2c1c1ccccc1n2C,–,"inconclusive [inhibitor, single point]"
CC(O)(c1cccnc1)c1nc(-c2cc(F)cc(F)c2)cs1 (stereo not given),–,"inconclusive [inhibitor, single point]"
Nc1c(C(=O)CSc2nnnn2-c2ccccc2)c(=O)[nH]c(=O)n1C1CC1,inconclusive: -30% [inhibitor],–
Cc1cccc(OCCNc2cc(N3CCN(C)CC3)ccc2[N+](=O)[O-])c1,–,active: 23.1 µM
CCN(CC)C(=O)CCc1nc2sc3c(c2c(=O)[nH]1)CCCC3,–,"inconclusive [inhibitor, partial curve]"
CC1(C)CC2CC(C)(CN2S(=O)(=O)c2cccc(C(N)=O)c2)C1 (stereo not given),–,"inconclusive [inhibitor, single point]"
O=C(NCCc1ccccc1)c1ccc(-c2cccnc2)c2ccoc12,–,active: 14.6 µM
COc1ccc(OC)c(CN2C(=O)c3ccccc3C2C(=O)NCC2CCCO2)c1 (stereo not given),inactive: -3.92%,–
CC1CN(C(=O)c2ccccc2NS(=O)(=O)c2ccc(Cl)cc2)CC(C)O1 (stereo not given),inactive: -3.86%,–
O=C(Nc1ccc(F)cc1)c1ccc2c(=O)n3c(nc2c1)CCCCC3,–,active: 16.4 µM
COc1cccc2[nH]c(=O)c(-c3ccccc3)cc12,inactive: 3.78%,–
O=C(NCC(c1cccs1)S(=O)(=O)c1ccccc1)c1ccc(C(F)(F)F)cc1 (stereo not given),–,"inconclusive [inhibitor, single point]"
CC(=O)Nc1cccc(NC(=O)CSc2nccn2Cc2ccc(F)cc2)c1,inactive: 10.9%,–
COc1ccc(CNC(=S)NC2CCCC2)cc1,–,"inconclusive [inhibitor, single point]"
O=C(CN(Cc1ccccc1)S(=O)(=O)c1ccc(F)cc1)NCCC1=CCCCC1,–,"inconclusive [inhibitor, single point]"
CCCC(=O)Nc1c(C(=O)OCC)[nH]c2ccccc12,–,active: 1.84 µM
O=c1oc(/C=C/c2ccccc2)nc2sc3c(c12)CCC3,inactive: -4.84%,–
CCCN(C(=O)c1ccco1)c1nnc(-c2cccc(C)c2)s1,–,"inconclusive [inhibitor, single point]"
